Results are given in words; binding and its absence hold for the method and conditions named. In cells and extracts the contact can be indirect. Some entries that bind do so weakly or less than the wild type. Sequences can lack the tags named with a protein.
T1: GFP-DFCP1^WT (Double FYVE Domain Containing Protein 1) (UniProt Q9HBF4)
T1 sequence: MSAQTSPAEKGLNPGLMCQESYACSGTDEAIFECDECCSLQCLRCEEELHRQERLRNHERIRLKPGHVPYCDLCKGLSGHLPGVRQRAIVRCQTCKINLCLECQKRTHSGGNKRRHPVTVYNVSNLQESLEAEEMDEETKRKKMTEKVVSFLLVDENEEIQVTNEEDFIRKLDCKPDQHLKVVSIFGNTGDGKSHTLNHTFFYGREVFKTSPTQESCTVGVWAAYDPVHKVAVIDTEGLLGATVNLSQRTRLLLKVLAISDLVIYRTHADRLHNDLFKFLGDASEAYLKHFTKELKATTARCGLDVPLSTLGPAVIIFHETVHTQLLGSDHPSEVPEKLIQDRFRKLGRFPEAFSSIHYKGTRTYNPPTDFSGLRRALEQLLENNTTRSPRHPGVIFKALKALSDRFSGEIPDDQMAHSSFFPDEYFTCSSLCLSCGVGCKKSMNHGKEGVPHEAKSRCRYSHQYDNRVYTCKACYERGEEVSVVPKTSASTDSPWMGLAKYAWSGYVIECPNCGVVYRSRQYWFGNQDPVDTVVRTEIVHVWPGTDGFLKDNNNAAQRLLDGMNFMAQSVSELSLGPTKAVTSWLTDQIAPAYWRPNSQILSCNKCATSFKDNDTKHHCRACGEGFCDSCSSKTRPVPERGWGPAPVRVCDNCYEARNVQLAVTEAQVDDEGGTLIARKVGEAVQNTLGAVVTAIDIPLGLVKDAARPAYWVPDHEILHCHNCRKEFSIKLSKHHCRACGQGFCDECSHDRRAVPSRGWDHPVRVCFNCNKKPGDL

T2: DFCP1^554-777 (UniProt Q9HBF4)
T2 sequence: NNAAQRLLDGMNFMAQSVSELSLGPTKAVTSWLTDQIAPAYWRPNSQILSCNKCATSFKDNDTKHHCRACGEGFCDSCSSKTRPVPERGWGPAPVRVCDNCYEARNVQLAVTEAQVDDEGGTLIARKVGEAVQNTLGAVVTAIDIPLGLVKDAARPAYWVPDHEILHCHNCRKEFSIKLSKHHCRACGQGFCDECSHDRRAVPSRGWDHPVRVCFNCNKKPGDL

T3: GFP-DFCP1^1-415 (UniProt Q9HBF4)
T3 sequence: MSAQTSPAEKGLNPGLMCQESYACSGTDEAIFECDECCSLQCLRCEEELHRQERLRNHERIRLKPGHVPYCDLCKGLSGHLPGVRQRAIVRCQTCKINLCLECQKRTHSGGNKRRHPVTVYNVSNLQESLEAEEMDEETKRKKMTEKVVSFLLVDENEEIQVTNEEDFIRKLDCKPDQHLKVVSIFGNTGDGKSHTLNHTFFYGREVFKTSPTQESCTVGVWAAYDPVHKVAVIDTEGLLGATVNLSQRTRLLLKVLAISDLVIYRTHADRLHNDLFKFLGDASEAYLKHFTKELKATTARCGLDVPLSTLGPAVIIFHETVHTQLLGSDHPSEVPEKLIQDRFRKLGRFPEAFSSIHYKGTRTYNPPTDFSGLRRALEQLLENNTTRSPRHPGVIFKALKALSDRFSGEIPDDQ

T4: GFP-DFCP1^415-777 (UniProt Q9HBF4)
T4 sequence: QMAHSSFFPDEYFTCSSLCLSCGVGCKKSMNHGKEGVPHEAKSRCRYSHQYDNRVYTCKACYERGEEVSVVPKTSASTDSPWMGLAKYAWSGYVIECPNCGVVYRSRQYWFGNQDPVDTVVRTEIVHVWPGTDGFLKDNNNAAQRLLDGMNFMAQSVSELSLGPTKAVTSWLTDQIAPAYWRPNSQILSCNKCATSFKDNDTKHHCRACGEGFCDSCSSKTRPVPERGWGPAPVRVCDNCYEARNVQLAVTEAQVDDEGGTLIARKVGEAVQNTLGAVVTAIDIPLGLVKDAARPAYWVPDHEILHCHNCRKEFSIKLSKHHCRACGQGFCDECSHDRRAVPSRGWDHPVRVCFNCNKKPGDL

T5: GFP-DFCP1^KA (K193A) (UniProt Q9HBF4)
T5 sequence: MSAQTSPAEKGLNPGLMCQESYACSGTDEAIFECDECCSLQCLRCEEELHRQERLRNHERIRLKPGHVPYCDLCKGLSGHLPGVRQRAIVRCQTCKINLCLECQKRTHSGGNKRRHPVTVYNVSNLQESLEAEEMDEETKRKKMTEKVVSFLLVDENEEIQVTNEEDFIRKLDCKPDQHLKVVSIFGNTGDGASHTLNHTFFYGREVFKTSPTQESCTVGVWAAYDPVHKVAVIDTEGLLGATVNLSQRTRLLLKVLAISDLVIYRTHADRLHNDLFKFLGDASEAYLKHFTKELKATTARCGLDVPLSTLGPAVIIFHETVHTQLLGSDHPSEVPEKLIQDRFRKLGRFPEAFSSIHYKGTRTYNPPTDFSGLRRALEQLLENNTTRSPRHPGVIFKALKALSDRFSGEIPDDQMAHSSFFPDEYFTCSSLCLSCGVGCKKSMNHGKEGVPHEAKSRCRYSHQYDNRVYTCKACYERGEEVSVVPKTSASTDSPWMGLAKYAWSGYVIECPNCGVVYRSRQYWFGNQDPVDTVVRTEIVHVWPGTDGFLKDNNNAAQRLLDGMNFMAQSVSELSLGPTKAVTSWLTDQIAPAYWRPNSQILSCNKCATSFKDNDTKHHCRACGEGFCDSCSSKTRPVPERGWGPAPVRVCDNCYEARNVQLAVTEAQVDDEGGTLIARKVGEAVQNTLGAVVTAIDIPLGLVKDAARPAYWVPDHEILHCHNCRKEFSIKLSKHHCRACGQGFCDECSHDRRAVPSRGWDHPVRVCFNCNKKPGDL

T6: GFP-DFCP1^RQ (R266Q) (UniProt Q9HBF4)
T6 sequence: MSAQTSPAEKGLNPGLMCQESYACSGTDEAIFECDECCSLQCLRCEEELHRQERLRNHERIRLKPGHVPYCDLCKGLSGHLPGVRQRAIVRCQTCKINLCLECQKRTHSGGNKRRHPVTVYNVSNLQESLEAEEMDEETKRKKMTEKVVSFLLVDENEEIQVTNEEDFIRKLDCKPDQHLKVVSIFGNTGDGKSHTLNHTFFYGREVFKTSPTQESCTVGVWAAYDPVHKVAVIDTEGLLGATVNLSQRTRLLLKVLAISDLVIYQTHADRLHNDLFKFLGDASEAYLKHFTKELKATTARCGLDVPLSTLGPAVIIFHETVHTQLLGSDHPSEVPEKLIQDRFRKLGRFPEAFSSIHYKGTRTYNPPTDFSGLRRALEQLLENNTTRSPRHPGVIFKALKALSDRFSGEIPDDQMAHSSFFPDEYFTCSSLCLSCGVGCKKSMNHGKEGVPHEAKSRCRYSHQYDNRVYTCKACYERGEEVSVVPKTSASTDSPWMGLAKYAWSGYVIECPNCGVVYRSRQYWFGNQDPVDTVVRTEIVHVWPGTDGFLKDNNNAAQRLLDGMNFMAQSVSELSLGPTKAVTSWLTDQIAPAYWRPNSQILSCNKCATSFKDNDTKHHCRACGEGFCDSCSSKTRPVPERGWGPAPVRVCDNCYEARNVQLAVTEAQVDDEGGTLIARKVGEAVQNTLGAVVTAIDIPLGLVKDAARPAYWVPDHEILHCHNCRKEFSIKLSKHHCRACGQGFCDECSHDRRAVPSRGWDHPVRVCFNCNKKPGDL


Assays:
Test in all cases: pull-down; semi-in vitro: GFP-DFCP1 constructs pulled out of HEK 293T lysates onto His-GFP-nanobody beads, washed repeatedly with PBS, then incubated with purified ATGL (FLAG-ATGL or MBP-ATGL 1-254); detected by blot; only the binder purified
[1] = target: T1, GFP-DFCP1^WT (Double FYVE Domain Containing Protein 1)
DFCP1^554-777 = target: T2, DFCP1^554-777
GFP-DFCP1^1-415 = target: T3, GFP-DFCP1^1-415
GFP-DFCP1^415-777 = target: T4, GFP-DFCP1^415-777
GFP-DFCP1^KA (K193A) = target: T5, GFP-DFCP1^KA (K193A)
GFP-DFCP1^RQ (R266Q) = target: T6, GFP-DFCP1^RQ (R266Q)

Row | Binder | binding [1] | binding (DFCP1^554-777) | binding (GFP-DFCP1^1-415) | binding (GFP-DFCP1^415-777) | binding (GFP-DFCP1^KA (K193A)) | binding (GFP-DFCP1^RQ (R266Q))
1 | FLAG-ATGL (human Adipose Triglyceride Lipase, full length) (enzyme, UniProt Q96AD5 1-504) MFPREKTWNISFAGCGFLGVYYVGVASCLREHAPFLVANATHIYGASAGALTATALVTGVCLGEAGAKFIEVSKEARKRFLGPLHPSFNLVKIIRSFLLKVLPADSHEHASGRLGISLTRVSDGENVIISHFNSKDELIQANVCSGFIPVYCGLIPPSLQGVRYVDGGISDNLPLYELKNTITVSPFSGESDICPQDSSTNIHELRVTNTSIQFNLRNLYRLSKALFPPEPLVLREMCKQGYRDGLRFLQRNGLLNRPNPLLALPPARPHGPEDKDQAVESAQAEDYSQLPGEDHILEHLPARLNEALLEACVEPTDLLTTLSNMLPVRLATAMMVPYTLPLESALSFTIRLLEWLPDVPEDIRWMKEQTGSICQYLVMRAKRKLGRHLPSRLPEQVELRRVQSLPSVPLSCAAYREALPGWMRNNLSLGDALAKWEECQRQLLLGLFCTNVAFPPEALRMRAPADPAPAPADPASPQHQLAGPAPLLSTPAPEARPVIGALGL | binds | – | – | – | – | –
2 | MBP-ATGL (1–254) (domain or fragment, UniProt Q96AD5 1-254) MFPREKTWNISFAGCGFLGVYYVGVASCLREHAPFLVANATHIYGASAGALTATALVTGVCLGEAGAKFIEVSKEARKRFLGPLHPSFNLVKIIRSFLLKVLPADSHEHASGRLGISLTRVSDGENVIISHFNSKDELIQANVCSGFIPVYCGLIPPSLQGVRYVDGGISDNLPLYELKNTITVSPFSGESDICPQDSSTNIHELRVTNTSIQFNLRNLYRLSKALFPPEPLVLREMCKQGYRDGLRFLQRNGL | binds | binds | no binding | binds | binds | binds

— paper PMC11721518
